# Laboratory results published in ChEMBL document CHEMBL4888484, “Replenishing the malaria drug discovery pipeline: Screening and hit evaluation of the MMV Hit Generation Library 1 (HGL1) against asexual blood stage Plasmodium falciparum ,using a nano luciferase reporter read-out” (2022).
# The campaign covered roughly 150,000 compounds. About 540 (0.36%) showed an effect of 50% or more. This is one part of the list.
# System: Plasmodium falciparum
# Test: Primary screen in NF54 nanoGlo assay, in single point, at 2uM, 72h; a lower Z score goes with more inhibition
# Assay type: functional, Erythrocyte
# Settings: timepoint 72 hour
SMILES,% Inhibition [%],Z score
CCO[C@@H](C)C(=O)NCc1cccs1,-15,1.58
Cc1cnc(CNC(=O)[C@@H](C)C2CCOCC2)s1,0,-0.03
CC1CCCCC1N(C)C(=O)c1ccoc1 (stereo not drawn),4,-0.57
O=C(CCC1CCCC1)N1CCCCC[C@H]1c1nc(C2CC2)no1,-11,2.1
CNC(=O)[C@@H]1C[C@@H](NCc2c(F)cccc2F)CN1Cc1cccc(Cl)c1,-1,0.15
COc1ccc(CCn2ccn3c(=O)cc(C)nc23)cc1,-12,1.53
CN(C(=O)Cn1cccn1)c1nc2c(s1)C[C@@H](c1ccccc1)CC2,3,-0.45
CC[C@@](C)(C#CCN1CCN(C)CC1)OC(C)=O,-2,0.36
Cc1cccc(NS(=O)(=O)c2ccc3c(c2)CCN3S(C)(=O)=O)c1C,-1,0.09
COc1ccc(C(=O)N2CCC3(CC[C@@H]3OC)CC2)cc1F,-13,1.62
O=C(CCCc1cn[nH]c1)NCc1cscn1,11,-1.55
COc1cc(CN2CCC(NC(=O)C3CCC(F)(F)C3)C2)cc(OC)c1 (stereo not drawn),-4,0.84
Nc1cc(N2CCC(c3nccn3Cc3cscn3)CC2)ncn1,-1,0.15
O=S1(=O)CCC[C@H](NS(=O)(=O)c2cccc3c2N=S=N3)C1,-18,2.29
COc1cc(C)c(-c2cccc(C(=O)N3C[C@@H]4[C@@H](CN(C)C)[C@@H]4C3)c2)cn1,-6,0.81
CN(CCCc1ccco1)c1ccc(-c2nc(-c3cccc(F)c3)no2)cn1,-9,1.06
O=C(NCc1cccnc1N1CCOCC1)c1c[nH]nn1,-3,0.6
Cc1cccc2[nH]c(COCC(=O)N[C@@H](C)C3=CCCCC3)nc12,-14,1.45
Cc1nn(-c2ccccc2)c2c1CN(C(=O)Nc1ccc3c(c1)OCO3)[C@H](c1cccc(Cl)c1)c1cccn1-2,-8,1.41
CN(CCCN(C)c1cnn(C)c1)c1cnn(C)c1,-12,2.26
CC(NC(=O)N1CCC(CS(C)(=O)=O)C1)C1COc2ccccc21 (stereo not drawn),-11,1.37
O=C(NCc1cn(-c2ccsc2)nn1)c1c(F)cccc1F,-9,1.42
CC(=O)c1ccc(NC(=O)Cc2c(C)nn(-c3ccc(C(F)(F)F)cn3)c2C)cc1,-6,0.87
COc1cccc(-c2ccc(N3CCCN(C(=O)CN(C(=O)C(C)C)C(C)C)CC3)nn2)c1,-26,3.68
Cc1cc(C(=O)N(C)Cc2ccc(Br)o2)no1,-13,1.7
Cc1cc(C)c2[nH]c(C(=O)N3CCCOCC3)c(C)c2c1,-4,0.59
CC(C)c1nc([C@H]2CCCN(c3ccc4nnnn4n3)C2)no1,-8,1.66

SMILES,% Inhibition [%],Z score
CC(=O)NCCc1cn(Cc2nc(-c3cccc(Cl)c3)oc2C)cn1,-20,2.19
O=C(Cn1nc2c(N3CCN(c4ccccc4)CC3)nccn2c1=O)Nc1ccc2c(c1)OCO2,-23,2.19
CCCCCC(=O)Nc1ccc([C@H]2OCC(=O)N[C@@H]2CO)cc1,31,-3.56
CC1CN(CC2CCN(C(=O)c3ccc(Oc4ccccc4)cc3)CC2)CC(C)O1 (stereo not drawn),-2,0.19
O=C(NCCOc1ccccc1)Nc1ccc(N2CCCC2=O)cc1,-4,0.66
CN1CCC([C@H]2OCC[C@@H]2c2nc(N(C)C)no2)CC1,1,-0.12
C=C1C(C)(C)[C@@H]2CC[C@@]1(C(=O)NC1(C(=O)O)CCC1)C2,-15,1.98
O=C(c1ccc2ncsc2c1)N1CCN(CCn2cccn2)CC1,-11,2.17
O=C(O)c1ccccc1CN1CCN(c2nc(-c3ccccc3)no2)CC1,-4,0.8
COC[C@H]1C[C@@H](NC(=O)Nc2ccc3c(c2)OCCO3)[C@H](O)[C@@H]1O,16,-1.84
CNC(=O)CCOC(=O)c1ccc(Cl)c(Cl)c1,-10,1.47
CNS(=O)(=O)c1ccc(N)cc1C,-3,0.47
CC(=O)NC(C)(C)C[C@H](C)N1CCc2[nH]nc(C)c2C1,5,-0.69
CCCCn1c(N2CCC[C@H](C(=O)N3CCCC3)C2)nc2ccccc21,-17,2.02
Cc1noc(C)c1C(C)(C)NC(=O)c1nccnc1N,-4,0.46
Cc1nc(CCNC(=O)c2n[nH]c3c2CCC3)nc2c1CCCC2,-6,0.8
COC(OC)C(=O)N1CCN(S(=O)(=O)CC(C)C)CC1,0,-0.01
Cc1cc(C(=O)CN2CCCC[C@H]2C(=O)N2CCOCC2)c(C)[nH]1,-3,0.3
COCCC(=O)NCCn1c(C)cnc1C1CC1,-4,0.81
Cc1cnc(CN2CC[C@H](O)CC(C)(C)C2)cn1,7,-0.67
CCNC(=O)NCCOC(=O)C1CCCC1,-16,2.21
COc1ccc(NC(=O)CC2(C(=O)O)Cc3ccccc3C2)cc1Cl,-10,0.83
CCOC(=O)c1ccc(Nc2ccc(F)c(N3CCCC3=O)c2)nc1,9,-0.74
Cc1c(CNCc2cccnc2Oc2ccc(F)c(F)c2)cnn1C,-9,1.16
O=C(Nc1cccc(-c2nnsc2Cl)c1)[C@H]1CCCO1,-7,1.3
O=C(Cn1nnnc1CN1CCCCCC1)NCCCc1ccccc1,-1,0.24
CC1(C)O[C@@H]2C[C@@](OCc3ccc(F)cc3F)(C(=O)NCCCn3ccnc3)CC(OCc3ccc(C#N)cc3)[C@@H]2O1 (stereo partly drawn),-17,1.54
